According to patent US5834430A, “Potentiation of antibiotics” (BiosYnth S.r.l., priority 1995, dated 1998):
At least one peptide structure holds a part that was inferred or is arguable (an end, a ring closure or a residue). Positions of bridges follow the written chain, without caps; N, C: chain ends. Residues, ends and D or L forms follow the SMILES beside them.

Tests used:
[1] = system: E. coli IH3080; experiment: Checkerboard microdilution MIC of antibiotic with peptide; type: cell-based, Escherichia coli; settings: for MIC Rifampin: Experiment I; for MIC Fusidic a.: Experiment II; for MIC Novobiocin: Experiment III; for MIC Erythrom.: Experiment IV
Description: (§1) The general assay medium was L broth (pH7.2) which contained 10 g of tryptone (Difco Laboratories, Detroit, Mich.), 5 g of yeast extract (Oxoid Ltd., Hampshire, UK) and 5 g of sodium chloride per liter. After an incubation time of 18 hours at 37° C., the growth of each microtiter well is measured with a Titerteck Multiscan spectrophotometer at 405 nm. Before reading, the spectrophotometer was blanked with corresponding uninoculated drug-containing media. The minimum inhibitory concentration (MIC) of an antibiotic was defined as the lowest concentration of the antibiotic expressed in mg/l which reduced the growth of the target bacteria by ≥90% (MIC90).

[2] = system: E. coli IH3080; experiment: Antibacterial activity of peptide used alone; type: cell-based, Escherichia coli; settings: no antibiotic
[3] = system: Ps. aeroginosa PAO1; experiment: Checkerboard microdilution MIC of antibiotic with peptide; type: cell-based, Pseudomonas aeruginosa; settings: for MIC Rifampin: Experiment I; for MIC Fusidic a.: Experiment II; for MIC Novobiocin: Experiment III; for MIC Erythrom.: Experiment IV
Description: as §1

[4] = system: Klebs pneum. 12854; experiment: Antibacterial activity of peptide used alone; type: cell-based, Klebsiella pneumoniae; settings: no antibiotic
[5] = system: S. typhi SH5014; experiment: Checkerboard microdilution MIC of antibiotic with peptide; type: cell-based, Salmonella typhimurium; settings: for MIC Rifampin: Experiment I; for MIC Fusidic a.: Experiment II; for MIC Novobiocin: Experiment III; for MIC Erythromycin.: Experiment IV
Description: as §1

[6] = system: Kl. pneumoniae 12854; experiment: as above; type: cell-based; settings: for MIC Rifampin: Experiment I; for MIC Fusidic a.: Experiment II; for MIC Novobiocin: Experiment III; for MIC Erythrom.: Experiment IV
Description: as §1

[7] = system: E. cloa 12645; experiment: as above; type: cell-based, Enterobacter cloacae; settings: for MIC Rifampin: Experiment I; for MIC Fusidic a.: Experiment II; for MIC Novobiocin: Experiment III; for MIC Erythrom.: Experiment IV
Description: as §1

[8] = system: Micrococcus luteus ML36; experiment: Antibacterial activity of peptide used alone; type: cell-based; settings: no antibiotic
[9] = system: Enterob. cloacae 12654; experiment: Antibacterial activity of peptide used alone; type: cell-based, Enterobacter cloacae; settings: no antibiotic
[10] = system: Pseud. aeroginosa PAO1; experiment: Antibacterial activity of peptide used alone; type: cell-based, Pseudomonas aeruginosa; settings: no antibiotic

SMILES: CC(C)C[C@@H]1NC(=O)[C@H](Cc2ccccc2)NC(=O)[C@H](CCCCN)NC(=O)[C@@H](N)CSSC[C@@H](C(=O)O)NC(=O)[C@H](CCCCN)NC(=O)[C@H](CCCCN)NC1=O [Peptide Seq. ID 30] (H-CKFLKKC-OH; disulfide 1-7)
- MIC Rifampin ([1]; peptide 1 mg/l): 10 µg/mL
- MIC Rifampin ([1]; peptide 10 mg/l): 3 µg/mL
- MIC Rifampin ([1]; peptide 100 mg/l): 0.1 µg/mL
- MIC Fusidic a. ([1]; peptide 1 mg/l): 300 µg/mL
- MIC Fusidic a. ([1]; peptide 10 mg/l): 300 µg/mL
- MIC Fusidic a. ([1]; peptide 100 mg/l): 10 µg/mL
- MIC Novobiocin ([1]; peptide 1 mg/l): 30 µg/mL
- MIC Novobiocin ([1]; peptide 10 mg/l): 10 µg/mL
- MIC Novobiocin ([1]; peptide 100 mg/l): 1 µg/mL
- MIC Erythrom. ([1]; peptide 1 mg/l): 30 µg/mL
- MIC Erythrom. ([1]; peptide 10 mg/l): 30 µg/mL
- MIC Erythrom. ([1]; peptide 100 mg/l): 1 µg/mL
- antibacterial activity (MIC) of peptide used alone [2]: > 100 µg/mL
- MIC Rifampin ([3]; peptide 1 mg/l): > 10 µg/mL
- MIC Rifampin ([3]; peptide 10 mg/l): > 10 µg/mL
- MIC Rifampin ([3]; peptide 100 mg/l): 10 µg/mL
- MIC Fusidic a. ([3]; peptide 1 mg/l): > 300 µg/mL
- MIC Fusidic a. ([3]; peptide 10 mg/l): > 300 µg/mL
- MIC Fusidic a. ([3]; peptide 100 mg/l): > 300 µg/mL
- MIC Novobiocin ([3]; peptide 1 mg/l): > 30 µg/mL
- MIC Novobiocin ([3]; peptide 10 mg/l): > 30 µg/mL
- MIC Novobiocin ([3]; peptide 100 mg/l): > 30 µg/mL
- MIC Erythrom. ([3]; peptide 1 mg/l): 100 µg/mL
- MIC Erythrom. ([3]; peptide 10 mg/l): 100 µg/mL
- MIC Erythrom. ([3]; peptide 100 mg/l): 100 µg/mL
- antibacterial activity (MIC) of peptide used alone [4]: > 100 µg/mL
- MIC Rifampin ([5]; peptide 1 mg/l): 10 µg/mL
- MIC Rifampin ([5]; peptide 10 mg/l): 10 µg/mL
- MIC Rifampin ([5]; peptide 100 mg/l): 0.1 µg/mL
- MIC Fusidic a. ([5]; peptide 1 mg/l): > 300 µg/mL
- MIC Fusidic a. ([5]; peptide 10 mg/l): > 300 µg/mL
- MIC Fusidic a. ([5]; peptide 100 mg/l): 30 µg/mL
- MIC Novobiocin ([5]; peptide 1 mg/l): 30 µg/mL
- MIC Novobiocin ([5]; peptide 10 mg/l): 30 µg/mL
- MIC Novobiocin ([5]; peptide 100 mg/l): 1 µg/mL
- MIC Erythromycin. ([5]; peptide 1 mg/l): 100 µg/mL
- MIC Erythromycin. ([5]; peptide 10 mg/l): 100 µg/mL
- MIC Erythromycin. ([5]; peptide 100 mg/l): 10 µg/mL
- MIC Rifampin ([6]; peptide 1 mg/l): 10 µg/mL
- MIC Rifampin ([6]; peptide 10 mg/l): 10 µg/mL
- MIC Rifampin ([6]; peptide 100 mg/l): 1 µg/mL
- MIC Fusidic a. ([6]; peptide 1 mg/l): > 300 µg/mL
- MIC Fusidic a. ([6]; peptide 10 mg/l): > 300 µg/mL
- MIC Fusidic a. ([6]; peptide 100 mg/l): 100 µg/mL
- MIC Novobiocin ([6]; peptide 1 mg/l): 30 µg/mL
- MIC Novobiocin ([6]; peptide 10 mg/l): 30 µg/mL
- MIC Novobiocin ([6]; peptide 100 mg/l): 10 µg/mL
- MIC Erythrom. ([6]; peptide 1 mg/l): > 100 µg/mL
- MIC Erythrom. ([6]; peptide 10 mg/l): > 100 µg/mL
- MIC Erythrom. ([6]; peptide 100 mg/l): 30 µg/mL
- MIC Rifampin ([7]; peptide 1 mg/l): 10 µg/mL
- MIC Rifampin ([7]; peptide 10 mg/l): 10 µg/mL
- MIC Rifampin ([7]; peptide 100 mg/l): 0.3 µg/mL
- MIC Fusidic a. ([7]; peptide 1 mg/l): > 300 µg/mL
- MIC Fusidic a. ([7]; peptide 10 mg/l): > 300 µg/mL
- MIC Fusidic a. ([7]; peptide 100 mg/l): 30 µg/mL
- MIC Novobiocin ([7]; peptide 1 mg/l): > 30 µg/mL
- MIC Novobiocin ([7]; peptide 10 mg/l): > 30 µg/mL
- MIC Novobiocin ([7]; peptide 100 mg/l): 10 µg/mL
- MIC Erythrom. ([7]; peptide 1 mg/l): > 100 µg/mL
- MIC Erythrom. ([7]; peptide 10 mg/l): > 100 µg/mL
- MIC Erythrom. ([7]; peptide 100 mg/l): 30 µg/mL
- antibacterial activity (MIC) of peptide used alone [8]: 100 µg/mL
- antibacterial activity (MIC) of peptide used alone [9]: > 100 µg/mL
- antibacterial activity (MIC) of peptide used alone [10]: > 100 µg/mL

SMILES: CC(C)C[C@@H]1NC(=O)[C@H](Cc2ccccc2)NC(=O)[C@H](CCCCN)NC(=O)[C@@H](NC(=O)[C@H](CCCCN)NC(=O)[C@@H](NC(=O)[C@@H](N)CCCCN)[C@@H](C)O)CSSC[C@@H](C(=O)O)NC(=O)[C@H](CCCCN)NC(=O)[C@H](CCCCN)NC1=O [Peptide Seq. ID 31, Lys-Thr-Lys-Cys-Lys-Phe-Leu-Lys-Lys-Cys] (H-KTKCKFLKKC-OH; disulfide 4-10)
- MIC Rifampin ([1]; peptide 1 mg/l): 3 µg/mL
- MIC Rifampin ([1]; peptide 10 mg/l): 1 µg/mL
- MIC Rifampin ([1]; peptide 100 mg/l): 0.1 µg/mL
- MIC Fusidic a. ([1]; peptide 1 mg/l): 300 µg/mL
- MIC Fusidic a. ([1]; peptide 10 mg/l): 100 µg/mL
- MIC Fusidic a. ([1]; peptide 100 mg/l): 10 µg/mL
- MIC Novobiocin ([1]; peptide 1 mg/l): 30 µg/mL
- MIC Novobiocin ([1]; peptide 10 mg/l): 3 µg/mL
- MIC Novobiocin ([1]; peptide 100 mg/l): 1 µg/mL
- MIC Erythrom. ([1]; peptide 1 mg/l): 30 µg/mL
- MIC Erythrom. ([1]; peptide 10 mg/l): 10 µg/mL
- MIC Erythrom. ([1]; peptide 100 mg/l): 1 µg/mL
- antibacterial activity (MIC) of peptide used alone [2]: > 100 µg/mL
- MIC Rifampin ([3]; peptide 1 mg/l): > 10 µg/mL
- MIC Rifampin ([3]; peptide 10 mg/l): 10 µg/mL
- MIC Rifampin ([3]; peptide 100 mg/l): 3 µg/mL
- MIC Fusidic a. ([3]; peptide 1 mg/l): > 300 µg/mL
- MIC Fusidic a. ([3]; peptide 10 mg/l): > 300 µg/mL
- MIC Fusidic a. ([3]; peptide 100 mg/l): 300 µg/mL
- MIC Novobiocin ([3]; peptide 1 mg/l): > 30 µg/mL
- MIC Novobiocin ([3]; peptide 10 mg/l): > 30 µg/mL
- MIC Novobiocin ([3]; peptide 100 mg/l): > 30 µg/mL
- MIC Erythrom. ([3]; peptide 1 mg/l): 100 µg/mL
- MIC Erythrom. ([3]; peptide 10 mg/l): 100 µg/mL
- MIC Erythrom. ([3]; peptide 100 mg/l): 100 µg/mL
- antibacterial activity (MIC) of peptide used alone [4]: > 100 µg/mL
- MIC Rifampin ([5]; peptide 1 mg/l): 10 µg/mL
- MIC Rifampin ([5]; peptide 10 mg/l): 10 µg/mL
- MIC Rifampin ([5]; peptide 100 mg/l): 0.03 µg/mL
- MIC Fusidic a. ([5]; peptide 1 mg/l): > 300 µg/mL
- MIC Fusidic a. ([5]; peptide 10 mg/l): > 300 µg/mL
- MIC Fusidic a. ([5]; peptide 100 mg/l): 3 µg/mL
- MIC Novobiocin ([5]; peptide 1 mg/l): 10 µg/mL
- MIC Novobiocin ([5]; peptide 10 mg/l): 10 µg/mL
- MIC Novobiocin ([5]; peptide 100 mg/l): 1 µg/mL
- MIC Erythromycin. ([5]; peptide 1 mg/l): 100 µg/mL
- MIC Erythromycin. ([5]; peptide 10 mg/l): 100 µg/mL
- MIC Erythromycin. ([5]; peptide 100 mg/l): 3 µg/mL
- MIC Rifampin ([6]; peptide 1 mg/l): 10 µg/mL
- MIC Rifampin ([6]; peptide 10 mg/l): 10 µg/mL
- MIC Rifampin ([6]; peptide 100 mg/l): 1 µg/mL
- MIC Fusidic a. ([6]; peptide 1 mg/l): > 300 µg/mL
- MIC Fusidic a. ([6]; peptide 10 mg/l): 300 µg/mL
- MIC Fusidic a. ([6]; peptide 100 mg/l): 30 µg/mL
- MIC Novobiocin ([6]; peptide 1 mg/l): 30 µg/mL
- MIC Novobiocin ([6]; peptide 10 mg/l): 30 µg/mL
- MIC Novobiocin ([6]; peptide 100 mg/l): 3 µg/mL
- MIC Erythrom. ([6]; peptide 1 mg/l): > 100 µg/mL
- MIC Erythrom. ([6]; peptide 10 mg/l): > 100 µg/mL
- MIC Erythrom. ([6]; peptide 100 mg/l): 30 µg/mL
- MIC Rifampin ([7]; peptide 1 mg/l): 10 µg/mL
- MIC Rifampin ([7]; peptide 10 mg/l): 10 µg/mL
- MIC Rifampin ([7]; peptide 100 mg/l): 1 µg/mL
- MIC Fusidic a. ([7]; peptide 1 mg/l): > 300 µg/mL
- MIC Fusidic a. ([7]; peptide 10 mg/l): 300 µg/mL
- MIC Fusidic a. ([7]; peptide 100 mg/l): 30 µg/mL
- MIC Novobiocin ([7]; peptide 1 mg/l): > 30 µg/mL
- MIC Novobiocin ([7]; peptide 10 mg/l): > 30 µg/mL
- MIC Novobiocin ([7]; peptide 100 mg/l): 10 µg/mL
- MIC Erythrom. ([7]; peptide 1 mg/l): > 100 µg/mL
- MIC Erythrom. ([7]; peptide 10 mg/l): > 100 µg/mL
- MIC Erythrom. ([7]; peptide 100 mg/l): 100 µg/mL
- antibacterial activity (MIC) of peptide used alone [8]: 100 µg/mL
- antibacterial activity (MIC) of peptide used alone [9]: > 100 µg/mL
- antibacterial activity (MIC) of peptide used alone [10]: > 100 µg/mL
